Patent publication US20170082635A1 (University of California, published 2017)

Target: T1, Neurofilament medium polypeptide (human, UniProt P07197 2-916)
T1 construct: whole, on cells; endogenous, cross-linked inside intact HEK 293 cells; also called NFM; P07197
T1 sequence (looked up): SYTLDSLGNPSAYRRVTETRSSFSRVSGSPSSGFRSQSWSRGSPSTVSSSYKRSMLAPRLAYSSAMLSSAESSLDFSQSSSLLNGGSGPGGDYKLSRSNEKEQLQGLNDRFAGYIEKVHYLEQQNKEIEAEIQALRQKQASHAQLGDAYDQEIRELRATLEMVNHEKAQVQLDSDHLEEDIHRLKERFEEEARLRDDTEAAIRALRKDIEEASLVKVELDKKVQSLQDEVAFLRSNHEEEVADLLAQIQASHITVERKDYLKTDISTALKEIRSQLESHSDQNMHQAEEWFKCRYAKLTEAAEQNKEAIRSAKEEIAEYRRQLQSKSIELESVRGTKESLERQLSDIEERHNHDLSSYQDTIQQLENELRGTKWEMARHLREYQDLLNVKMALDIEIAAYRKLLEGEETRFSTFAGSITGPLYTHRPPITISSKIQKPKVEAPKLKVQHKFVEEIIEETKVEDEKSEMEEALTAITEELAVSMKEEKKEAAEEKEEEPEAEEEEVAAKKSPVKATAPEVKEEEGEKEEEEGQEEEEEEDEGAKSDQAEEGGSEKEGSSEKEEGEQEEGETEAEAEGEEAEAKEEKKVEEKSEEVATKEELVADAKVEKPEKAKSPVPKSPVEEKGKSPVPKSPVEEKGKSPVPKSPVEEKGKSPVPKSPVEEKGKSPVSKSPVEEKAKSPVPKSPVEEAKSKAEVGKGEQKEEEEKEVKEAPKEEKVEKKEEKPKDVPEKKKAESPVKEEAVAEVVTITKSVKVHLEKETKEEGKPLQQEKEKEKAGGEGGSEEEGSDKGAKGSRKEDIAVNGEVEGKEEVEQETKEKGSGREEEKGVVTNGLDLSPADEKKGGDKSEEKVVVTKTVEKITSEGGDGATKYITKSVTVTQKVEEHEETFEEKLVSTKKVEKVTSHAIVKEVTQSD
Assay: in vivo azide-A-DSBSO XL-MS, HEK 293; column Inter-subunit of Table 10

binding result: binds
B1: Vimentin (other)
chain: not shown
notes: whole, on cells; endogenous, cross-linked inside intact HEK 293 cells; also called […]
